Assay results as given in ChEMBL document CHEMBL4888484, “Replenishing the malaria drug discovery pipeline: Screening and hit evaluation of the MMV Hit Generation Library 1 (HGL1) against asexual blood stage Plasmodium falciparum ,using a nano luciferase reporter read-out” (2022).
Screen size: about 150,000 compounds; about 540 (0.36%) showed an effect of 50% or more. The list shows a part of the results.

Test system: Plasmodium falciparum
Assay: Primary screen in NF54 nanoGlo assay, in single point, at 2uM, 72h; a lower Z score goes with more inhibition
Assay type: functional, Erythrocyte
Conditions: timepoint 72 hour

SMILES | % Inhibition | Z score
CCc1c(C(=O)N2C[C@H](N)C[C@H]2C(=O)NC(C)C)csc1C | -25% | 3.41
COc1ccccc1-c1noc2ncnc(N(C)Cc3ccco3)c12 | -7% | 0.85
Cc1nnc(NCCCc2csc(N)n2)o1 | -4% | 0.7
CC1=NN(c2ccc(C(=O)NC[C@H]3CCCCN(Cc4ccccc4)C3)cc2)CC1 | -4% | 0.5
O=S(=O)(Nc1nnc2[nH]cnn12)c1ccc2c(c1)CCCC2 | 3% | -0.36
COc1ccc(-c2nccn2CCS(C)(=O)=O)c2ccccc12 | -11% | 1.61
COc1ccc(NS(=O)(=O)c2cc(-c3ccn[nH]3)cs2)cc1F | -4% | 0.72
CN(C)C(=O)[C@H](Nc1cccc2c1CCCC2)c1ccccc1 | -9% | 1.77
COc1cccc(-c2ccc(N3CCCN(C(=O)CN(C[C@H]4CCCO4)C(=O)C4CCC4)CC3)nn2)c1 | -3% | 0.44
O=C1[C@H](c2cccnc2)N(CCCc2ccccc2)C(=O)CN1c1ccccc1 | 40% | -4.49
Cc1oc2ncnc(N3CCC(C(=O)NCCc4ccco4)CC3)c2c1C | -4% | 0.44
Cc1ccccc1OC[C@H](C)NC(=O)NC1(C(N)=O)CCCC1 | -24% | 2.43
COc1ncnc(C)c1-c1cccc(C(=O)N2CCCN(C(C)=O)CC2)c1 | -6% | 1.06
CCN1C(=O)CO[C@H](c2nc(-c3ncccn3)no2)[C@H]1c1ccccc1 | -7% | 0.9
Cc1cnn(CCNC(=O)[C@H](C)N2CCN(C)CC2)c1 | 18% | -1.75
Cn1c2c(c(=O)n(C)c1=O)[C@H](c1ccc(OCc3ccccc3)cc1)NC(=O)N2 | -4% | 0.53
CCCN(CC(=O)N1CCN(c2ccc(-c3ccc(OC)c(OC)c3)nn2)CC1)C(=O)c1ccc2c(c1)OCO2 | -6% | 0.64
Cc1ccc(/N=C2\CCCN2C)c(C#N)c1 | -3% | 0.34
CC(C)N(C)C(=O)c1nn(C)c2c1COCC2 | 0% | 0.06
COCC1(CNC(=O)N2CCC([C@@H](O)CCc3ccccc3)CC2)CCC1 | -2% | 0.36
c1ccc2c(c1)CC(NCCC[C@H]1CCOC1)C2 | 0% | 0.06
Fc1ccccc1-c1nc2ccc(-c3ccc(C(F)(F)F)cc3)cc2o1 | -6% | 0.75
O=C(N[C@H]1CCOC1)c1cnn(-c2ncc3c(n2)-c2ccccc2CCC3)c1C1CC1 | 4% | -0.61
O=C(c1cc2n(n1)CCCO2)N1CCN(c2ncccn2)CC1 | -15% | 2.38
c1ccc(CC(Cc2ccccc2)CN2CCC(n3cncn3)CC2)cc1 | -7% | 0.75
C[C@]12C(=O)N(C3CCN(Cc4ccccc4)CC3)CC(=O)N1CCc1c2[nH]c2ccccc12 | 1% | -0.15
Cc1oc(-c2cccc(F)c2)nc1CN(C)C(C)C | -9% | 1.43

SMILES | % Inhibition | Z score
CCOc1ccc(N(CC#N)S(=O)(=O)c2ccc3nncn3c2)cc1 | 7% | -1.11
Cc1noc(N)c1C(=O)OCc1cc(-c2ccc(Cl)cc2)no1 | -10% | 1.3
CNS(=O)(=O)CC(=O)N1CCC[C@H]1C(F)(F)F | 0% | 0.1
Cc1cc(C(=O)NC2(CF)CCOCC2)nn1[C@@H](C)C1CC1 | 2% | -0.35
Cn1ncnc1CNc1ccccc1C(=O)N1CCC[C@H](O)C1 | -6% | 1.15
CCc1nc(N2CC[C@@]3(CCCN(CCC4CCCCC4)C3)C2)no1 | -1% | 0.12
OCc1ccc(Oc2cccc(CN3CCCC3)c2Cl)cc1 | 0% | -0.05
Cc1c(C(=O)NC[C@H]2CCCOC2)[nH]c2c(Cl)cccc12 | -9% | 1.62
Cc1cc(CN(C)Cc2cc(CN(C)C)cs2)ccn1 | -8% | 1.62
Cc1cc(C)c2[nH]c(C(=O)NCCc3csc(N)n3)c(C)c2c1 | -3% | 0.61
CC(C)CN1CCC[C@H]1C(=O)Nc1ccc(-c2cscn2)cc1 | -1% | 0.22
CCCn1nnnc1CN1CCC[C@H]1CO | -7% | 0.97
Cc1ccoc1CN1CCN(c2ncccn2)CC1 | -7% | 1.09
O=C(Nc1c(-c2ccc(F)cc2)n[nH]c1C1CC1)C1CCCC1 | 4% | -0.55
C#CCCOC(=O)[C@H](C)NC(=O)C1CCC1 | -7% | 0.94
O=C(NCCn1nccn1)c1ccc(Br)o1 | -5% | 0.71
COc1ccc(C[C@@H]2C3=C(CCCC3)CCN2C(=O)c2cc(C)on2)cc1 | -5% | 0.97
CCN(CC)CCN[C@H]1CCCc2cccnc21 | -4% | 0.35
COc1cc(OC)cc(C(=O)N2CC[C@H](Oc3ccc(C)nn3)C2)c1 | -15% | 1.69
CC1CCN(c2nc3c(c(Oc4ccccc4F)n2)CN(Cc2ccc4c(c2)OCO4)CC3)CC1 | -11% | 1.09
CC1CN(C(=O)NCC(C)N(C)Cc2ccccc2)CCO1 (stereo not drawn) | -10% | 1.14
CCOc1ccccc1-n1nnn(S(C)(=O)=O)c1=O | -44% | 5.1
CC(C)OCCCNC(=O)C(C#N)C(=O)CC(C)c1ccccc1F (stereo not drawn) | -10% | 1.36
O=C1C2ON(c3ccccc3)C(c3ccc(-c4ccc(Cl)c(Cl)c4)o3)C2C(=O)N1c1ccc(Cl)cc1 (stereo not drawn) | -4% | 0.43
CN1CCN(C(=O)c2cnccc2NC(=O)C(C)(C)C)C[C@@]12CCOC2 | -5% | 0.87
CCOc1cc(N2C(=O)CC3CS(=O)(=O)CC32)c(OCC)cc1NC(=O)c1ccccc1 (stereo not drawn) | -9% | 1.71
Cc1nonc1CC(=O)N1CCCC[C@@H]1CCn1ccnn1 | -2% | 0.38
